Data published in the supplement of paper PMC8728848.
The other results are listed elsewhere or left out.

How the values were obtained:
Experiment in all cases: glycan array binding signal (z-score within array); higher = stronger binding
Settings in all cases: glycan notation: IUPAC condensed, linker removed
[1] = target: Fuc(a1-2)[Gal(a1-3)]Gal(b1-4)GlcNAc(b1-2)Man(a1-3)[Fuc(a1-2)[Gal(a1-3)]Gal(b1-4)GlcNAc(b1-2)Man(a1-6)]Man(b1-4)GlcNAc(b1-4)[Fuc(a1-6)]GlcNAc
Outline: (§1)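 The binding signal is a Z-score computed within each array. Data were drawn from 3228 arrays in the Consortium for Functional Glycomics database, restricted to those with a known protein sequence. Scores were averaged over arrays of the same protein sequence at different concentrations or buffers, and over linkers, and negative values can be taken as non-binding.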

[2] = target: Fuc(a1-2)[Gal(a1-3)]Gal(b1-4)GlcNAc(b1-3)GalNAc
Outline: as §1

[3] = target: Fuc(a1-2)[Gal(a1-3)]Gal(b1-4)GlcNAc(b1-3)[Fuc(a1-2)[Gal(a1-3)]Gal(b1-4)GlcNAc(b1-6)]GalNAc
Outline: as §1

[4] = target: Fuc(a1-2)[Gal(a1-3)]Gal(b1-4)GlcNAc(b1-6)GalNAc
Outline: as §1

[5] = target: Fuc(a1-2)[Gal(a1-3)]Gal(b1-4)[Fuc(a1-3)]Glc
Outline: as §1

[6] = target: Fuc(a1-2)[Gal(a1-3)]Gal(b1-4)[Fuc(a1-3)]GlcNAc
Outline: as §1

[7] = target: Fuc(a1-2)[Gal(a1-3)]Gal(b1-4)[Fuc(a1-3)]GlcNAc(b1-3)GalNAc
Outline: as §1

[8] = target: Fuc(a1-2)[Gal(a1-4)]Gal(b1-4)GlcNAc
Outline: as §1

[9] = target: Fuc(a1-2)[GalNAc(a1-3)]Gal
Outline: as §1

[10] = target: Fuc(a1-2)[GalNAc(a1-3)]Gal(b1-3)GalNAc(a1-3)[Fuc(a1-2)]Gal(b1-4)GlcNAc
Outline: as §1

[11] = target: Fuc(a1-2)[GalNAc(a1-3)]Gal(b1-3)GalNAc(b1-3)Gal(a1-4)Gal(b1-4)Glc
Outline: as §1

[12] = target: Fuc(a1-2)[GalNAc(a1-3)]Gal(b1-3)GlcNAc
Outline: as §1

[13] = target: Fuc(a1-2)[GalNAc(a1-3)]Gal(b1-3)GlcNAc(b1-2)Man(a1-3)[Fuc(a1-2)[GalNAc(a1-3)]Gal(b1-3)GlcNAc(b1-2)Man(a1-6)]Man(b1-4)GlcNAc(b1-4)GlcNAc
Outline: as §1

[14] = target: Fuc(a1-2)[GalNAc(a1-3)]Gal(b1-3)GlcNAc(b1-2)Man(a1-3)[Fuc(a1-2)[GalNAc(a1-3)]Gal(b1-3)GlcNAc(b1-2)Man(a1-6)]Man(b1-4)GlcNAc(b1-4)[Fuc(a1-6)]GlcNAc
Outline: as §1

[15] = target: Fuc(a1-2)[GalNAc(a1-3)]Gal(b1-3)GlcNAc(b1-3)GalNAc
Outline: as §1

[16] = target: Fuc(a1-2)[GalNAc(a1-3)]Gal(b1-3)GlcNAc(b1-6)GalNAc
Outline: as §1

[17] = target: Fuc(a1-2)[GalNAc(a1-3)]Gal(b1-4)Glc
Outline: as §1

[18] = target: Fuc(a1-2)[GalNAc(a1-3)]Gal(b1-4)GlcNAc
Outline: as §1

[19] = target: Fuc(a1-2)[GalNAc(a1-3)]Gal(b1-4)GlcNAc(b1-2)Man
Outline: as §1

[20] = target: Fuc(a1-2)[GalNAc(a1-3)]Gal(b1-4)GlcNAc(b1-2)Man(a1-3)[Fuc(a1-2)[GalNAc(a1-3)]Gal(b1-4)GlcNAc(b1-2)Man(a1-6)]Man(b1-4)GlcNAc(b1-4)GlcNAc
Outline: as §1

[21] = target: Fuc(a1-2)[GalNAc(a1-3)]Gal(b1-4)GlcNAc(b1-2)Man(a1-3)[Fuc(a1-2)[GalNAc(a1-3)]Gal(b1-4)GlcNAc(b1-2)Man(a1-6)]Man(b1-4)GlcNAc(b1-4)[Fuc(a1-6)]GlcNAc
Outline: as §1

[22] = target: Fuc(a1-2)[GalNAc(a1-3)]Gal(b1-4)GlcNAc(b1-3)Gal(b1-4)GlcNAc
Outline: as §1

[23] = target: Fuc(a1-2)[GalNAc(a1-3)]Gal(b1-4)GlcNAc(b1-3)Gal(b1-4)GlcNAc(b1-3)Gal(b1-4)GlcNAc
Outline: as §1

[24] = target: Fuc(a1-2)[GalNAc(a1-3)]Gal(b1-4)GlcNAc(b1-3)GalNAc
Outline: as §1

[25] = target: Fuc(a1-2)[GalNAc(a1-3)]Gal(b1-4)GlcNAc(b1-3)[Fuc(a1-2)[GalNAc(a1-3)]Gal(b1-4)GlcNAc(b1-6)]GalNAc
Outline: as §1

[26] = target: Fuc(a1-2)[GalNAc(a1-3)]Gal(b1-4)GlcNAc(b1-6)GalNAc
Outline: as §1

[27] = target: Fuc(a1-2)[GalNAc(a1-3)]Gal(b1-4)[Fuc(a1-3)]GlcNAc
Outline: as §1

[28] = target: Fuc(a1-2)[GalNAc(a1-3)]Gal(b1-4)[Fuc(a1-3)]GlcNAc(b1-3)GalNAc
Outline: as §1

[29] = target: Fuc(a1-2)[GalNAc(a1-4)]Gal(b1-4)GlcNAc
Outline: as §1

[30] = target: Fuc(a1-2)[GalNAc(b1-3)]Gal
Outline: as §1

Fuc(a1-3)GlcNAc = target: Fuc(a1-3)GlcNAc
Outline: as §1

[31] = target: Fuc(a1-3)[Gal(b1-4)]Glc6S
Outline: as §1

[32] = target: Fuc(a1-3)[Gal(b1-4)]GlcNAc
Outline: as §1

[33] = target: Fuc(a1-3)[Gal(b1-4)]GlcNAc(b1-2)Man
Outline: as §1

[34] = target: Fuc(a1-3)[Gal(b1-4)]GlcNAc(b1-2)Man(a1-3)[Fuc(a1-3)[Gal(b1-4)]GlcNAc(b1-2)Man(a1-6)]Man(b1-4)GlcNAc(b1-4)GlcNAc
Outline: as §1

[35] = target: Fuc(a1-3)[Gal(b1-4)]GlcNAc(b1-2)Man(a1-3)[Fuc(a1-3)[Gal(b1-4)]GlcNAc(b1-2)Man(a1-6)]Man(b1-4)GlcNAc(b1-4)[Fuc(a1-6)]GlcNAc
Outline: as §1

[36] = target: Fuc(a1-3)[Gal(b1-4)]GlcNAc(b1-3)Gal(b1-3)[Fuc(a1-4)]GlcNAc
Outline: as §1

[37] = target: Fuc(a1-3)[Gal(b1-4)]GlcNAc(b1-3)Gal(b1-4)[Fuc(a1-3)]GlcNAc
Outline: as §1

[38] = target: Fuc(a1-3)[Gal(b1-4)]GlcNAc(b1-3)Gal(b1-4)[Fuc(a1-3)]GlcNAc(b1-3)Gal(b1-4)[Fuc(a1-3)]GlcNAc
Outline: as §1

[39] = target: Fuc(a1-3)[Gal(b1-4)]GlcNAc(b1-3)GalNAc
Outline: as §1

[40] = target: Fuc(a1-3)[Gal(b1-4)]GlcNAc(b1-6)GalNAc
Outline: as §1

[41] = target: Fuc(a1-3)[Gal(b1-4)]GlcNAc(b1-6)[Gal(b1-3)GlcNAc(b1-3)]Gal(b1-4)Glc
Outline: as §1

[42] = target: Fuc(a1-3)[Gal(b1-4)]GlcNAc6S
Outline: as §1

[43] = target: Fuc(a1-3)[Gal3S(b1-4)]Glc
Outline: as §1

[44] = target: Fuc(a1-3)[Gal3S(b1-4)]GlcNAc
Outline: as §1

B1: Tamarinin (protein)
chain: CDDSARAGNIVVYWGQGGSDNSEGSLKEACKSGHYNMIVLQQLIVYDDGRDPDLNLGAHCSDCTKLEEQIKYCQNKDIKILLQIGQVVPTQEDVKDVTKNLSEYLLKNFFSGKSGPLGEVYLNGIDIASVPEGNNLKFDELVEALNDSSTERRIYLSASPLCVYPDYYLNKAIQTEKLDFLFVQFFYQNPCIYTEGNPENLFEAMKTWTKNVPESMIFMALPATPNLDGYIPPRVLNKEILPAVSEASNFAGVMIFDRYFDRFRKYSSKIK
**Q.** With B1 as the binder, how does the “glycan array binding signal (z-score)” value [1] read?
**A.** 1.37

**Q.** What about the “glycan array binding signal (z-score)” value [2] of the same binder?
**A.** -0.224

**Q.** What about the “glycan array binding signal (z-score)” value [3] of the same binder?
**A.** 0.565

**Q.** What about the “glycan array binding signal (z-score)” value [4] of the same binder?
**A.** 0.085

**Q.** What about the “glycan array binding signal (z-score)” value [5] of the same binder?
**A.** -0.466

**Q.** What about the “glycan array binding signal (z-score)” value [6] of the same binder?
**A.** 0.017

**Q.** What about the “glycan array binding signal (z-score)” value [7] of the same binder?
**A.** -0.38

**Q.** What about the “glycan array binding signal (z-score)” value [8] of the same binder?
**A.** -0.145

**Q.** And the “glycan array binding signal (z-score)” value [9]?
**A.** -0.388

**Q.** What about the “glycan array binding signal (z-score)” value [10] of the same binder?
**A.** -0.292

**Q.** What about the “glycan array binding signal (z-score)” value [11] of the same binder?
**A.** -0.41

**Q.** What about the “glycan array binding signal (z-score)” value [12] of the same binder?
**A.** 0.135

**Q.** What about the “glycan array binding signal (z-score)” value [13] of the same binder?
**A.** -0.394

**Q.** And the “glycan array binding signal (z-score)” value [14]?
**A.** 0.648

**Q.** What about the “glycan array binding signal (z-score)” value [15] of the same binder?
**A.** 0.076

**Q.** And the “glycan array binding signal (z-score)” value [16]?
**A.** 0.013

**Q.** And the “glycan array binding signal (z-score)” value [17]?
**A.** -0.388

**Q.** And the “glycan array binding signal (z-score)” value [18]?
**A.** -0.415

**Q.** And the “glycan array binding signal (z-score)” value [19]?
**A.** -0.302

**Q.** What about the “glycan array binding signal (z-score)” value [20] of the same binder?
**A.** -0.458

**Q.** And the “glycan array binding signal (z-score)” value [21]?
**A.** 1.07

**Q.** And the “glycan array binding signal (z-score)” value [22]?
**A.** -0.314

**Q.** And the “glycan array binding signal (z-score)” value [23]?
**A.** 0.586

**Q.** And the “glycan array binding signal (z-score)” value [24]?
**A.** -0.143

**Q.** And the “glycan array binding signal (z-score)” value [25]?
**A.** 0.2

**Q.** And the “glycan array binding signal (z-score)” value [26]?
**A.** -0.364

**Q.** And the “glycan array binding signal (z-score)” value [27]?
**A.** 0.192

**Q.** What about the “glycan array binding signal (z-score)” value [28] of the same binder?
**A.** 0.879

**Q.** What about the “glycan array binding signal (z-score)” value [29] of the same binder?
**A.** -0.445

**Q.** And the “glycan array binding signal (z-score)” value [30]?
**A.** -0.493

**Q.** And the “glycan array binding signal (z-score)” value (Fuc(a1-3)GlcNAc)?
**A.** -0.368

**Q.** What about the “glycan array binding signal (z-score)” value [31] of the same binder?
**A.** 0.284

**Q.** What about the “glycan array binding signal (z-score)” value [32] of the same binder?
**A.** -0.22

**Q.** What about the “glycan array binding signal (z-score)” value [33] of the same binder?
**A.** -0.045

**Q.** And the “glycan array binding signal (z-score)” value [34]?
**A.** -0.312

**Q.** What about the “glycan array binding signal (z-score)” value [35] of the same binder?
**A.** -0.308

**Q.** And the “glycan array binding signal (z-score)” value [36]?
**A.** -0.377

**Q.** And the “glycan array binding signal (z-score)” value [37]?
**A.** 0.223

**Q.** What about the “glycan array binding signal (z-score)” value [38] of the same binder?
**A.** -0.263

**Q.** What about the “glycan array binding signal (z-score)” value [39] of the same binder?
**A.** -0.115

**Q.** And the “glycan array binding signal (z-score)” value [40]?
**A.** -0.129

**Q.** And the “glycan array binding signal (z-score)” value [41]?
**A.** -0.178

**Q.** And the “glycan array binding signal (z-score)” value [42]?
**A.** -0.14

**Q.** And the “glycan array binding signal (z-score)” value [43]?
**A.** -0.199

**Q.** And the “glycan array binding signal (z-score)” value [44]?
**A.** -0.223
